According to ChEMBL document CHEMBL4888484, “Replenishing the malaria drug discovery pipeline: Screening and hit evaluation of the MMV Hit Generation Library 1 (HGL1) against asexual blood stage Plasmodium falciparum ,using a nano luciferase reporter read-out” (2022):
The campaign covered roughly 150,000 compounds. About 540 (0.36%) showed an effect of 50% or more. The list shows a part of the results.

These molecules were tested on Plasmodium falciparum (assay: Primary screen in NF54 nanoGlo assay, in single point, at 2uM, 72h; a lower Z score goes with more inhibition). Settings: timepoint 72 hour.
Type: functional, Erythrocyte
In the case of CC[C@@H](Cc1ccccc1)NS(=O)(=O)c1ccc2c(c1)CCN2C(=O)C1CCC1, the “% Inhibition” value is reported as -2% and the Z score is reported as 0.34. For CCCNC(=O)NC(=O)CNC1(C(=O)OC(C)(C)C)CCCC1, the “% Inhibition” value was -6% and the Z score was 1.29. For CCc1nsc(NCC2=NS(=O)(=O)c3ccccc3N2)n1, the “% Inhibition” value was -2% and the Z score was 0.35. For CC(C)(C)CC(CO)NC(=O)C(O)c1ccccc1 (stereo unspecified), the “% Inhibition” value was -5% and the Z score was 0.59. In the case of COc1ccc(S(=O)(=O)N(CCO)Cc2nccn2C)c2c1CCCC2, the “% Inhibition” value is reported as -1% and the Z score is reported as 0.16. For COc1cccc(OC)c1OC1CCN(c2ncccn2)CC1, the “% Inhibition” value was -4% and the Z score was 0.35. For CCC(C)C(NC(=O)c1ccc(OC)cc1)c1nc(-c2ccco2)no1 (stereo unspecified), the “% Inhibition” value was -17% and the Z score was 2.03. For Cc1ccc2oc(C(=O)c3ccc(Cl)cc3)c(-c3cnn(-c4ccccc4)c3)c2c1, the “% Inhibition” value was -32% and the Z score was 3.81. In the case of O=C(Nc1cc(C(F)(F)F)n[nH]1)c1ccn2cncc2c1, the “% Inhibition” value is reported as -3% and the Z score is reported as 0.41. In the case of O=S(=O)(C1CC1)N1CCCN(Cc2cc3n(n2)CCCC3)CC1, the “% Inhibition” value is reported as -3% and the Z score is reported as 0.55. CC(C)(C)C1CCC2(CC1)NC(=O)c1ccccc1O2 (stereo unspecified) was tested, and the “% Inhibition” value was -15% and the Z score was 1.59. COc1ccc(N2C(=O)c3ccccc3N[C@@H]2c2csnn2)c(OC)c1 was tested, and the “% Inhibition” value was -4% and the Z score was 0.52. O=C(c1ccsc1)N1CC[C@H](Cc2nnc(-c3cccnc3)[nH]2)C1 was tested, and the “% Inhibition” value was -4% and the Z score was 0.66. With Cc1ccccc1CN1CC(=O)N(C2CC2)C1 the “% Inhibition” value was -18% and the Z score was 2.74. CCOC(=O)Cc1c(C)nc2ncnn2c1N1CCN(CC(=O)N(C)c2ccccc2)CC1 was tested, and the “% Inhibition” value was 2% and the Z score was -0.27. Cc1cc(C)nc(NCCc2ccn(C)n2)n1 was tested, and the “% Inhibition” value was -14% and the Z score was 1.88. With C[C@H]1CCC(=O)N1Cc1c(F)ccc(Cl)c1Cl the “% Inhibition” value was -11% and the Z score was 1.33. For CCN1C[C@@H](c2ccccc2)CC2(CCN(Cc3csc(NC)n3)CC2)C1, the “% Inhibition” value was -4% and the Z score was 0.92. For C[C@@H](CCc1ccccc1)NC(=O)C1CCN(S(=O)(=O)Cc2ccccc2)CC1, the “% Inhibition” value was -5% and the Z score was 0.87. c1ccc(-c2cnc3n2C[C@H](CNCc2ccncc2)OC3)cc1 was tested, and the “% Inhibition” value was -4% and the Z score was 0.55. With c1ccc(Oc2ccc3[nH]c(-c4nnc(-c5ccccn5)s4)cc3c2)cc1 the “% Inhibition” value was 28% and the Z score was -3.67. For O=C(CCc1nc2ccccc2c(=O)[nH]1)N1CC[C@H](N2CCC2)C1, the “% Inhibition” value was 0% and the Z score was -0.08. For COC(=O)[C@H](NC(=O)c1cc(C#N)cn1C)c1cc(C)c(O)c(C)c1, the “% Inhibition” value was 2% and the Z score was -0.31. For CCN1CCc2c(c(CN(CC3CC3)C(=O)c3cccc(OC)c3)nn2-c2ccccc2)C1, the “% Inhibition” value was 13% and the Z score was -2.2. With COC1(C(F)(F)F)CCN(c2cnccn2)CC1 the “% Inhibition” value was -3% and the Z score was 0.58. With CCS(=O)(=O)c1cccc(NC2CCC2)c1 the “% Inhibition” value was 3% and the Z score was -0.31. In the case of C[C@H]1CN(Cc2ncccc2C(=O)O)CCN1c1ccccc1, the “% Inhibition” value is reported as -5% and the Z score is reported as 0.63. Cc1cc(C)c(S(=O)(=O)NC2CCCC(C(=O)O)C2)s1 (stereo unspecified) was tested, and the “% Inhibition” value was 4% and the Z score was -0.69. In the case of O=C(c1ccc2[nH]cnc2c1)N1CCN(C(=O)c2cc3cc(F)ccc3s2)CC1, the “% Inhibition” value is reported as -11% and the Z score is reported as 1.43. In the case of COc1ccc(N2CCN(C(=O)Cn3cccc3-c3nnc(C4CCC4)o3)CC2)cc1, the “% Inhibition” value is reported as 3% and the Z score is reported as -0.43. O=C(c1cc2n(n1)CCN(Cc1ccc(Cl)c(Cl)c1)C2=O)N1CCN(Cc2ccccc2)CC1 was tested, and the “% Inhibition” value was -1% and the Z score was 0.11. COc1ccc(CN2C[C@H]3CC[C@@H](C2)N(C(=O)c2nc(C)c[nH]2)C3)cc1 was tested, and the “% Inhibition” value was -2% and the Z score was 0.32. In the case of COC(=O)[C@@H]1C[C@H](O)CCN1C(=O)C1CCCCC1, the “% Inhibition” value is reported as 8% and the Z score is reported as -1.01. For CS(=O)(=O)CCCNc1cc(F)ccc1OC(F)F, the “% Inhibition” value was -7% and the Z score was 0.61. In the case of Cc1n[nH]nc1C(=O)NC(Cc1ccccc1)[C@H]1C[C@H](O)C1 (stereo partly specified), the “% Inhibition” value is reported as -15% and the Z score is reported as 1.37. In the case of CCNS(=O)(=O)CCNC(=O)[C@H](CC)c1cccc(C(F)(F)F)c1, the “% Inhibition” value is reported as -3% and the Z score is reported as 0.33. In the case of COc1ccc2cc1Oc1cccc(c1)CO[C@H]1CCN(C(=O)C(C)(C)N3CCOCC3)C[C@H]1NC(=O)CC2, the “% Inhibition” value is reported as -10% and the Z score is reported as 1.86. For Cc1nc(CNC(=O)c2c(C)n[nH]c2C2CC2)cs1, the “% Inhibition” value was 15% and the Z score was -1.9. In the case of O=C(NC[C@H]1CCCO1)c1cnc(Cc2c(Cl)cccc2Cl)nc1O, the “% Inhibition” value is reported as -8% and the Z score is reported as 1.29. For CC(C)c1cc(C(=O)N2CC[C@@](O)(C(F)F)C2)no1, the “% Inhibition” value was 0% and the Z score was 0.05. For Cc1nc(C2(CC3CC3)CCN(S(=O)(=O)c3ccc(F)c(F)c3)CC2)no1, the “% Inhibition” value was -2% and the Z score was 0.26. CN(CCc1ccncc1)S(=O)(=O)C1CN(C(=O)C2CCCC2)C1 was tested, and the “% Inhibition” value was 0% and the Z score was 0.05. In the case of O=C(N[C@H]1CCN(CC2CCCC2)C1)c1nccc2cccnc12, the “% Inhibition” value is reported as 36% and the Z score is reported as -4.29. In the case of CCc1ncsc1C(=O)Nc1ccc2nc(N3CCCC3)sc2c1, the “% Inhibition” value is reported as -2% and the Z score is reported as 0.23. O=C(Cn1cc2ccccc2n1)N[C@H]1CCOC[C@@H]1Oc1ccccn1 was tested, and the “% Inhibition” value was -6% and the Z score was 1.03. With COc1cc2c(cc1OC)CC(=O)N(CC(=O)NCCN1CCOCC1)C=C2 the “% Inhibition” value was -4% and the Z score was 0.52. With COC(=O)CCn1cc(-c2cc(-c3ccc(OC)nc3)nc(N)c2C#N)cn1 the “% Inhibition” value was -14% and the Z score was 1.76. With CCc1cc(CNC(=O)NCc2ccco2)[nH]n1 the “% Inhibition” value was -9% and the Z score was 1.58. For COc1ccc(C(=O)NC(c2ccccc2)[C@H]2C[C@H](O)C2)cc1 (stereo partly specified), the “% Inhibition” value was -7% and the Z score was 0.92. In the case of O=C(C[C@@]1(O)C(=O)N(Cc2ccc3c(c2)OCO3)c2ccccc21)c1ccccn1, the “% Inhibition” value is reported as 5% and the Z score is reported as -1.02. With CCCOc1ccccc1CCNC(=O)N1CCNC(=O)[C@@H]1CC(=O)NC the “% Inhibition” value was -6% and the Z score was 0.87. For CCc1nc(N)n(CC(=O)NCc2ccccc2)c(=O)c1C, the “% Inhibition” value was 5% and the Z score was -0.49. O=C(NC1CCCCC1)C1(NCc2c[nH]c3ccccc23)CCCCC1 was tested, and the “% Inhibition” value was 6% and the Z score was -0.89.
